Assay results as given in the supplement of paper PMC10126150.
Values marked as one replicate rest on one cluster of the flow cell; about a third of the high ones do not repeat.

Test system: ATP
Test: switch fluorescence ratio, 500 uM ATP over buffer (Cy3 cluster intensity, sum of 5 cycles each) (fold (ratio)); higher = stronger signal-on switching upon ATP binding; sequences stand for … in TCGTCGGCAGCGTCAGATGTGTATAAGAGACAGTTTTTTTTTTTTTTTTTTTTTTTTT…TC
Settings: aptamer strand: ATP DNA aptamer (quencher-CACCTGGGGGAGTATTGCGGAGGAAGG + anchor), 100 nM annealed; ATP concentration: 500 uM; one replicate
Outline: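 The fluorescence ratio divides summed target-cycle Cy3 intensity by summed buffer-cycle Cy3 intensity for each cluster and is averaged per switch-domain sequence. Cy3-labelled switching-strand clusters on a modified Illumina MiSeq flow-cell were annealed to 100 nM quencher-labelled ATP aptamer, then imaged in selection buffer and again after 15 min with 500 uM ATP at 22 °C. Five such cycles were run, with NaOH stripping and re-annealing between them, and clusters outside 100-1000 RFU were excluded.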
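Also: ATP exposure 15 min at 22 °C before imaging.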

| Sequence | switch fluorescence ratio |
| --- | --- |
| GAGCGTGCGT | 0.942 |
| GAGCGTGTGT | 1.03 |
| GAGCTCA | 0.999 |
| GAGCTGCGGA | 1 |
| GAGCTTCGAT | 1.03 |
| GAGCTTGGGA | 1.01 |
| GAGGAAACAC | 1.03 |
| GAGGAACTA | 1.02 |
| GAGGAATTCC | 1.03 |
| GAGGACGGGT | 1.07 |
| GAGGACTGGG | 1.04 |
| GAGGATACTG | 1.04 |
| GAGGATAGAG | 0.962 |
| GAGGATATAT | 0.985 |
| GAGGATTGTT | 1.04 |
| GAGGCCGCGT | 1.22 |
| GAGGCCGTAT | 1.06 |
| GAGGCGTAG | 1.02 |
| GAGGCGTCTG | 1 |
| GAGGCTAACA | 0.98 |
| GAGGCTTGAA | 1.07 |
| GAGGCTTGAT | 0.943 |
| GAGGGAACTC | 0.97 |
| GAGGGACTCG | 0.993 |
| GAGGGAGCTG | 0.958 |
| GAGGGATATG | 0.975 |

| Sequence | switch fluorescence ratio |
| --- | --- |
| GAGGGCAGGT | 0.99 |
| GAGGGCATGC | 1.01 |
| GAGGGCCGCT | 1.06 |
| GAGGGTCATT | 1.03 |
| GAGGGTGTG | 1.05 |
| GAGGGTTCCT | 0.978 |
| GAGGTATTGA | 1.01 |
| GAGGTCGCGA | 0.949 |
| GAGGTCTGGA | 0.982 |
| GAGGTGCGCG | 0.971 |
| GAGGTGTCTT | 0.984 |
| GAGGTTACTC | 0.989 |
| GAGGTTGCGC | 1 |
| GAGGTTTGAC | 0.967 |
| GAGGTTTGAG | 1 |
| GAGTAAAGC | 0.984 |
| GAGTAACAAT | 1.02 |
| GAGTAGAGGT | 1.01 |
| GAGTAGCCAG | 1.02 |
| GAGTAGTAAC | 0.967 |
| GAGTATCGAT | 0.995 |
| GAGTATGGGC | 0.978 |
| GAGTATGTGA | 0.964 |
| GAGTCAAATA | 0.989 |
| GAGTCACGCA | 1.35 |
| GAGTCAGGGG | 1.07 |

| Sequence | switch fluorescence ratio |
| --- | --- |
| GAGTCCAACT | 1 |
| GAGTCCCTGG | 1.06 |
| GAGTCGAACC | 1.41 |
| GAGTCGTAAG | 1.02 |
| GAGTGAGAAC | 0.975 |
| GAGTGAGAG | 1.04 |
| GAGTGAGATA | 1 |
| GAGTGAGATT | 1.01 |
| GAGTGATGGA | 0.976 |
| GAGTGCTTGA | 0.984 |
| GAGTGGAAG | 0.972 |
| GAGTGGATGC | 0.976 |
| GAGTGTATAG | 1.03 |
| GAGTGTCTAT | 1 |
| GAGTGTGTA | 0.973 |
| GAGTGTTATT | 1.01 |
| GAGTTAATAC | 1.19 |
| GAGTTAGAGA | 0.976 |
| GAGTTATACG | 0.954 |
| GAGTTGAACG | 0.944 |
| GAGTTGCGCT | 1.02 |
| GAGTTGTAAT | 1.06 |
| GAGTTTCCGG | 0.949 |
| GAGTTTCCTT | 1.03 |
| GAGTTTGCAC | 0.919 |
| GAGTTTGCG | 0.986 |

| Sequence | switch fluorescence ratio |
| --- | --- |
| GATAAAAGTG | 0.946 |
| GATAAATTAT | 1.01 |
| GATAAATTGG | 1.06 |
| GATAACAGCG | 1.01 |
| GATAAGCGCT | 0.993 |
| GATAAGGAAA | 1.02 |
| GATAAGTCTG | 1.34 |
| GATAAGTTGC | 1.11 |
| GATAATAAGA | 0.952 |
| GATAATGCTA | 1.01 |
| GATACAGGGG | 1.18 |
| GATACGAGAT | 1.04 |
| GATACGCGAA | 1 |
| GATACGGT | 1.03 |
| GATACTAGGC | 0.997 |
| GATACTCTGA | 0.99 |
| GATACTGCAC | 1.65 |
| GATACTGCCT | 1.07 |
| GATACTTTCT | 1.04 |
| GATAGGCAGA | 1.02 |
| GATAGGTCA | 0.992 |
| GATAGGTGGC | 0.953 |
| GATAGTACCG | 0.986 |
| GATAGTGATC | 1.04 |
| GATAGTTTAT | 1 |
| GATATAGGAG | 1 |

| Sequence | switch fluorescence ratio |
| --- | --- |
| GATATAGTCG | 0.969 |
| GATATAGTT | 0.988 |
| GATATCGAGC | 0.98 |
| GATATCTGAG | 1.03 |
| GATATCTTCG | 1.03 |
| GATATGAGCC | 1.03 |
| GATATGCTTA | 0.981 |
| GATATTCAGT | 1 |
| GATATTGTGT | 0.997 |
| GATATTTACA | 1.03 |
| GATATTTAGA | 0.995 |
| GATATTTCGA | 0.979 |
| GATCAGACGA | 0.94 |
| GATCAGTAGG | 1.02 |
| GATCATATT | 1.01 |
| GATCATGAGT | 0.981 |
| GATCATGTCA | 1.02 |
| GATCCAGGTG | 5.81 |
| GATCCCGGTT | 1.02 |
| GATCCCTTCT | 1.11 |
| GATCGACAGC | 1.04 |
| GATCGACAGT | 1.02 |
| GATCGAGCCA | 1.02 |
| GATCGAGCGG | 1.04 |
| GATCGGGTGT | 0.988 |
| GATCGGTATG | 0.986 |

| Sequence | switch fluorescence ratio |
| --- | --- |
| GATCGTAGTT | 0.97 |
| GATCGTGATG | 1.1 |
| GATCGTTTAG | 1.02 |
| GATCTACATC | 1.02 |
| GATCTACTCG | 0.99 |
| GATCTATGAC | 1.01 |
| GATCTGGTTA | 0.978 |
| GATCTGTAGG | 0.992 |
| GATCTTAGTC | 1.01 |
| GATCTTATAA | 1 |
| GATCTTCTC | 1.01 |
| GATGAAGGGG | 1.06 |
| GATGAATCC | 1.01 |
| GATGAGGAGT | 1.01 |
| GATGAGGTGA | 1.02 |
| GATGAGTACA | 0.986 |
| GATGAGTGCA | 1.01 |
| GATGATCGCA | 0.977 |
| GATGCACCTA | 1.01 |
| GATGCAGAG | 1.04 |
| GATGCGGCCA | 1.01 |
| GATGCTAAGG | 0.976 |
| GATGCTAG | 1.01 |
| GATGCTAGGA | 1.03 |
| GATGGAGAT | 0.983 |
| GATGGAGCTA | 0.995 |

| Sequence | switch fluorescence ratio |
| --- | --- |
| GATGGCCAAT | 1.02 |
| GATGGCCTTT | 1 |
| GATGGGGATC | 1.01 |
| GATGTACGAT | 1.05 |
| GATGTACTTT | 1.04 |
| GATGTAG | 1.02 |
| GATGTCCCGA | 1.01 |
| GATGTGGAGA | 1.05 |
| GATGTGGATA | 1.02 |
| GATGTTAAT | 0.986 |
| GATGTTGTA | 0.954 |
| GATGTTTTTG | 0.977 |
| GATTACCGGG | 1.04 |
| GATTAGGTTA | 0.995 |
| GATTAGTGAA | 0.959 |
| GATTAGTGCA | 1.04 |
| GATTAGTTTG | 1 |
| GATTATCGAG | 1.01 |
| GATTATTATG | 1.02 |
| GATTCAACGG | 0.99 |
| GATTCAATGG | 1.04 |
| GATTCAATGT | 1.01 |
| GATTCAATTA | 1.02 |
| GATTCAGATC | 1 |
| GATTCAGGCT | 0.996 |
| GATTCATT | 0.981 |

| Sequence | switch fluorescence ratio |
| --- | --- |
| GATTCGGCTC | 0.994 |
| GATTCGGGGG | 0.996 |
| GATTCTATGT | 0.989 |
| GATTCTGAAT | 0.953 |
| GATTCTGACG | 1.05 |
| GATTCTTCCA | 1.02 |
| GATTGACCGC | 1.09 |
| GATTGACTTA | 1.03 |
| GATTGCCCCA | 1.03 |
| GATTGCTACG | 1.03 |
| GATTGCTGAA | 0.992 |
| GATTGGGGCC | 0.978 |
| GATTGGTTGA | 0.977 |
| GATTGTGTAC | 1.05 |
| GATTGTTTCT | 0.974 |
| GATTTAATCA | 1.03 |
| GATTTACGGG | 1.06 |
| GATTTACTT | 1.04 |
| GATTTAGCTT | 1.04 |
